Results published in PMC10726135.
The other results are listed elsewhere or left out. At the low end of the ranking the order means little. Measured with an extract: partners may take part in the binding.

target: T1, HNF4alpha2 (COS-7 nuclear extract) (UniProt P41235); assay: protein-binding microarray; conditions: COS-7 nuclear extract on double-stranded Agilent 4x180k PBM; binding buffer, salt, pH and temperature not given; high values mean tight binding; double strand, one strand shown; sequences stand for … in …GCCTAGGGAGATTAGAGTATCGGTCGA
T1 sequence: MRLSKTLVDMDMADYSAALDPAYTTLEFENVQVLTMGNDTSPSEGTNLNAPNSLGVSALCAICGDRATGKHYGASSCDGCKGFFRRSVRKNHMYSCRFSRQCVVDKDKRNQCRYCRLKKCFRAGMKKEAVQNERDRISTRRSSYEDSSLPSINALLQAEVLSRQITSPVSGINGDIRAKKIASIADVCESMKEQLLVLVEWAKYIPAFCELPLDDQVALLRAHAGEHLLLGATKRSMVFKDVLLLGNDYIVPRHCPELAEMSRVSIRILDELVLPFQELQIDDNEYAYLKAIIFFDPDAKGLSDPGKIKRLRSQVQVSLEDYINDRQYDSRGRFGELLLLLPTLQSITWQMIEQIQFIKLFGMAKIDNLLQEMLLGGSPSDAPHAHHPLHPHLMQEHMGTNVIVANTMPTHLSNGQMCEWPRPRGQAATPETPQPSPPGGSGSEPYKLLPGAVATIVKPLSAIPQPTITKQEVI

| Sequence | binding signal (log2 normalized intensity) |
| --- | --- |
| ATGCAGCTAAAAGCAGCATCCCTGATAAAC | -1.07 |
| GAGCCTGGACACACGAATAATGGAGCTGAT | -0.825 |
| CAGGCCCTTCTACATGAGGAGTGAGAACAG | -1.2 |
| GGCTTCACAATTCCTAGCAATTCAAATTCT | -1.03 |
| GGATTAAGTGCATACTCAAAGAATTTAACA | -1.07 |
| CTTATGCATAGATGTTTAGCTATCAGTGTT | 1.55 |
| TGTAGATAAACTGGAAAGGGCTTCAGAGTC | 0.04 |
| CAGGAAGTTCCCACAGTCCTTAAGATCCAA | -1.07 |
| CCTTATCATCACATGTGCAAGGGCAGCTCC | 0.669 |
| AGGCTGGGTGATAAGAACACAAAAGCCTCT | -1.09 |
| GTTAAGTAACGTGTCAGAGGTCACTCAGCA | 2.29 |
| AAACTTATCTTGTGACCTTTGACTCATTAT | 6.43 |
| ATAAAAGATTGCATCTGTTTTTATTTCCCC | 1.79 |
| TCAGGCTGTGGTACGGAATCCAGGCCAACT | -0.838 |
| GAACCGTCGTAATGGCTAAGGGCATCTACT | -1.13 |
| ATCCAAAGTTCATGGAAAGTTTCACTTTCT | 0.643 |
| CAAAATTTTAATTAGAACTGTAATTGAGTA | 0.832 |
| GTTCCGACCTTAGTACTCTGCCATGTGCTA | 1.82 |
| TCCCGGGGAGTCCTGGGCGTTGCTCTCCCA | -1.16 |
| GGGAGGAGGAGACAAAGGCCGCGCCCGCCC | -1.15 |
| GAGCCTGGGGTTCAGCCACACCAAGTCTGG | -1.25 |
| TCCAGATCAAGGATTTTTTCTTGGACTTTG | 5.42 |
| ATCTTTGCCCTTGAAGATACAGTTATGAAA | 1.44 |
| GTGCAAAGGCCTTAAAGTGTAAATATTTGA | 0.685 |

| Sequence | binding signal (log2 normalized intensity) |
| --- | --- |
| CAGAGCATTGTTTATTGTTGCTGATATAGA | 1.33 |
| AAGCAGTCTACACTAGGAGGAGGTCAAAGT | 3.88 |
| TTCCCTTATCTTCTCCCCTGCCAAATCATG | 2.6 |
| TGGTCAAAGGTCACCAGTGAGCCAAGGTAC | 4.75 |
| AAACTTCATGGCTTAAAACGACTGATTCTC | -1.17 |
| CTTTACTTATCCAAAGCTGCTGGGAGGTAG | 0.725 |
| CCTGGTCAAAGTCAACTCCTCCAAGCCACC | 0.61 |
| GAAGGACAAAGATCATAAATGCCTCCCCCT | 4.54 |
| CAAAACTTTAGGACTTTGAACCTTGGGTCT | 7.13 |
| TTTATCCAGTTCTGTGTACAAAGCCCCATA | 3.46 |
| GGCCTCTCCTTCATCTTCAAAGCCAGCAAT | 0.209 |
| CCCCACTTCCTGACTTGGCCTGAACCAGTT | 0.163 |
| TTCAAGAAGACCTTTGCTCCACGTTCATAT | 3.39 |
| TGGTTTTTCTGGGACCAAGGGTCAGTTCAT | 3.42 |
| AAATGTAATCAGCAAGTTTTATATGAAAAC | -0.182 |
| GGACTCCAAGCCCCAAAAACTTGGACTCTA | 5.21 |
| TACCCAACTCATCAGTATTTGATGGTACAA | 1.28 |
| TATTGGATTCCCCAATGCAGTACTATGCAA | 1.54 |
| CAGGTGGGAGGGGTGGACTTTGGCTTTTCC | 5.47 |
| CTTAAAGGCCTGTGTCGATGTTAACGCTAA | -0.828 |
| TACCTGATGAAGCAATAGGAATCACACAAC | -1.12 |
| GGTGGACATGGTCCAGTCACAGCAAAAGTA | 0.248 |
| TTAGGCAAGCAAACTGCAAATACAGGTGAA | -1.07 |
| AGAGAGATAGCAAAATCAATAAATCACACG | -1.04 |

| Sequence | binding signal (log2 normalized intensity) |
| --- | --- |
| GAAGACAGTTCAAATCCCTTCGGATGACTC | -1.05 |
| AGCCTCTTGAGTAGCTGGGACTACAGGCAG | -1.14 |
| AAGCCGAACGCTGGGGCAAAGGTTTCCTAA | 0.42 |
| TGTTTTACCAGGAAGGGCTTTATGACCAGT | 1.44 |
| TGTCCTTTAACCTCCCTGCAGGTCTCTAAA | 1.19 |
| GATTCCTGCTGAGAGAGCAGGTTGAGTATC | -0.164 |
| GGCTGTGGAGGGCAGTGGATGGGGGCGTTC | 0.704 |
| CTGGGAGATAAGATAGCACCAGCCCATTAA | 0.0817 |
| ACCAGGCAAAAATGCCAGGCATTTGCGATA | -1.17 |
| TTTGGCTCAGGGCCTCTCCTTCATCTTCAA | -1.07 |
| GGGCTCAAAGGTTACCACCCAGGAGTCTGT | 2.67 |
| GAGCAATTATGCACCCGTGGTTGATCAAAG | 0.362 |
| GGCTGAGCGTGAACACCGGCCCCCTCCCCC | 5.95 |
| CTAGGTGGCGCTGTTGACCTTGAAATGCCA | 1.46 |
| CCACCTCCTCTGAAGCTAGGACAAGGCTCA | -1.18 |
| TGAGCTGAGTTCCACAGATAAGGAGGAGAC | -1.04 |
| AGGTTATCTCGGGGCTGGCATGTCTCTGGT | 1.24 |
| TTTTTGACCTGTATCTTGTGGTGACCTCTT | 4.51 |
| TGTGAGTCCAGTTGAATGATGGCGAGTGTG | 1.62 |
| ATGCCAGGAATGCTGAGGAGGGCCTGGGGG | -1.16 |
| GTTTAGTTGGAGAGACAGGTAAATCAGTAC | -0.705 |
| ACCTCTCCCACCTGAATTATTGTATAGCTT | 1.1 |
| CTGGCCTCTGAGATTCGGTGAGGGATTGTT | 0.00819 |
| GGGACAAAGGTCACAGGAAAGGGACCAAAG | 3.38 |
